From PubChem BioAssay AID686978 (National Center for Advancing Translational Sciences (NCATS), 2013)
The campaign covered roughly 420,000 compounds. About 64,000 (15%) were called active. Inconclusive means that the source gave no clear call. Such entries were picked first, then a sample of the others. The call rests on the fitted dose curve; in most records, active means well fitted inhibition curve with a large enough effect; inconclusive means small, poorly fitted or top-dose-only effect; inactive means flat fitted curve, though single readings scatter. No potency is given beside an inconclusive call; the fits are too rough.

experiment: qHTS for Inhibitors of human tyrosyl-DNA phosphodiesterase 1 (TDP1): qHTS in cells in absence of CPT; conditions: DT40 Tdp1-/- hTDP1 cells, no CPT, ATP luminescence, 48 h; activity change, negative = growth inhibition: at 46.2 µM (top of the series) unless noted; further: nearly all actives have a fitted effect of over 55% in size
Summary of the method: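 Chicken DT40 Tdp1-/- cells complemented with human TDP1, screened without camptothecin (DMSO vehicle only), 400 cells/well. Compounds pin-transferred, cells incubated at 37 °C for at least 48 hr. Growth read as ATP-dependent luminescence (CellTiter-Glo, 30 min at RT).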
On the % scale 0 is the no-effect control and ±100 the full control effect; potency means the concentration at half of the fitted maximal effect; tags describe the fitted curve by direction and shape.

| SMILES | Potency | activity change, negative = growth inhibition |
| --- | --- | --- |
| CN(C)c1ccc(C(CNC(=O)c2ccc(C#N)cc2)c2c[nH]c3ccccc23)cc1 (stereo not given) | active: 20.6 µM | – |
| Cc1ccc2c(c1)N(C(=O)CCC(=O)NC1CCN(Cc3ccccc3)CC1)CC(C)O2 (stereo not given) | inconclusive [inhibitor, single point] | – |
| O=C(NN1C(=O)NC2(CCCCC2)C1=O)c1ccc(Cl)s1 | inconclusive [inhibitor, single point] | – |
| Cc1ccc(C(=O)NCCn2cc(SCC(=O)Nc3cc(C)on3)c3ccccc32)cc1 | inconclusive [inhibitor, single point] | – |
| CC(=O)c1cc(F)ccc1OCC(=O)N1CCN(c2ccc(F)cc2)CC1 | inconclusive [inhibitor, single point] | – |
| CC(=O)Oc1ccccc1/C=C/c1ccc2ccccc2[n+]1C | active: 16.4 µM | – |
| Cc1cccc(C)c1NC(=O)N1CCCCCCC1 | – | inactive: -11.1% |
| Cc1cc(C)cc(-c2nnc(SCC(=O)NCC3CCCO3)o2)c1 (stereo not given) | – | inactive: -9.77% |
| COc1ccc(/C=C/c2nc(-c3ccccc3O)n(-c3ccccc3)n2)cc1 | inconclusive [inhibitor, single point] | – |
| COc1ccc2c(CNCc3ccco3)c(C(=O)O)n(Cc3cccc(F)c3)c2c1 | inconclusive [inhibitor, single point] | – |
| CCOc1ccccc1CN1CCN(C/C=C/c2ccc(OC)cc2)CC1CCO (stereo not given) | inconclusive [inhibitor, single point] | – |
| O=C1C[C@H]2[C@H](CO)[C@@H](OC(=O)c3ccc(-c4ccccc4)cc3)C[C@H]2O1 | active: 16.4 µM | – |
| Cc1cccc(C(=O)Nc2ccc3c(c2)C(=O)N(CC(C)C)C3=O)c1 | inconclusive [inhibitor, single point] | – |
| COc1cccc(C(=O)Nc2nc(-c3nnn(-c4cccc(Cl)c4C)c3C)ns2)c1 | inconclusive [inhibitor, single point] | – |
| O=C1c2cccnc2C(Nc2ccc(F)c(Cl)c2)N1Cc1cccs1 (stereo not given) | – | inactive: 22.3% |
| OCC1OC(n2cnc3c(NCc4ccccc4O)ncnc32)C(O)C1O (stereo not given) | active: 1.46 µM | – |
| C/C(=N/O)c1ccc2c(c1)OCCOCCOc1cc(/C(C)=N/O)ccc1OCCOCCO2 | active: 16.4 µM | – |
| COC(=O)c1cc(-c2ccc(OC)cc2F)nc2nc(SC)[nH]c(=O)c12 | inconclusive [inhibitor, partial curve, poor fit] | – |
| O=C(CCc1ccc(S(=O)(=O)NC2CCCCC2)cc1)NCc1ccc(Cl)cc1 | inconclusive [inhibitor, single point] | – |
| COc1ccc(C=NNC(=O)CCCC(=O)NN=Cc2ccc(OC)c(O)c2)cc1O | – | inactive: -4.32% |
| Clc1ccc(Cc2nc(-c3ccncc3)no2)cc1 | inconclusive [inhibitor, partial curve, poor fit] | – |
| COc1cccc(C2CC(c3ccccc3Cl)n3nnnc3N2)c1 (stereo not given) | inconclusive [inhibitor, single point] | – |
| COc1ccc(Cl)cc1NC(=O)CN(C)C(=O)CN1C(=O)NC(C)(c2ccc3ccccc3c2)C1=O (stereo not given) | active: 14.6 µM | – |
| Cn1c(NCCCO)nc2c1c(=O)n(Cc1cccc(F)c1)c(=O)n2C | – | inactive: -20.8% |

| SMILES | Potency | activity change, negative = growth inhibition |
| --- | --- | --- |
| CCOC(=O)c1c(NC(=O)CSc2nnc(C)s2)sc2c1CCCCC2 | inconclusive [inhibitor, single point] | – |
| CCCN(CCC)C(=O)C1CCN(c2cc(C)nc3c(-c4ccc(Cl)cc4)c(C)nn23)CC1 | inconclusive [inhibitor, full curve] | – |
| CS(=O)(=O)N(Cc1ccccc1)c1ccc(C(=O)Nc2ccc(C(N)=O)cc2)cc1 | – | inactive: -5.31% |
| CCC(C)(C)n1nnnc1C(c1ccc(Cl)cc1)N1CCN(C)CC1 (stereo not given) | inconclusive [inhibitor, single point] | – |
| CNc1cccc2c1C(=O)c1ccccc1C2=O | inconclusive [inhibitor, single point] | – |
| NC(=O)c1nsc(C(=O)N(Cc2ccc(F)cc2)C(C(=O)NCC2CCCO2)c2ccc(O)cc2)c1N (stereo not given) | – | inactive: -14.3% |
| CCOC(=O)N1CCC(N2C(=O)c3ccccc3C2Nc2ccc(C)cc2)CC1 (stereo not given) | inconclusive [inhibitor, single point] | – |
| O=C(N/N=C/c1ccc(N2CCCCC2)o1)c1ccccc1[N+](=O)[O-] | inconclusive [inhibitor, single point] | – |
| O=C(NCCO)c1ccc(-c2nnc(Nc3ccc(OC(F)(F)Cl)cc3)c3ccccc23)cc1 | inconclusive [inhibitor, partial curve, poor fit] | – |
| c1coc(-c2ccnc3ncnn23)c1 | – | inactive: -5.31% |
| CCCCn1c(N)c(N(CCC(C)C)C(=O)COC(=O)c2ccc3ccccc3c2)c(=O)[nH]c1=O | inconclusive [inhibitor, partial curve] | – |
| COc1ccc2c(-c3cc4ccc(OCc5ccc(F)cc5)cc4oc3=O)cc(=O)oc2c1 | active: 11.6 µM | – |
| Cc1cc(C(=O)CN2C(=O)NC3(CCCCC3C)C2=O)c(C)n1Cc1cccs1 (stereo not given) | inconclusive [inhibitor, single point] | – |
| CC1CN(c2nnc(NC(=O)c3ccccc3)s2)CC(C)O1 (stereo not given) | – | inactive: -10.6% |
| CCCn1c(=O)c2ccccc2n2c(SCC(=O)Nc3cc(C)on3)nnc12 | inconclusive [inhibitor, single point] | – |
| Cc1ccc2c(c1)CN(CCNC(=O)c1c(-c3ccccc3)noc1C)CC(C)O2 (stereo not given) | – | inactive: -11.3% |
| COc1cc(C(=O)Nc2cc(C)c(O)c(-c3nc4ccccc4s3)c2)cc(OC)c1OC | – | inactive: -1.99% |
| CCOC(=O)COc1cc(-n2c(=S)[nH]c3cc(OC)c(OC)cc3c2=O)c(Cl)cc1Cl | inconclusive [inhibitor, single point] | – |
| Cc1ccc(N2CC(=O)Nc3c(sc4nc(C)cc(C)c34)C2=O)cc1 | – | inactive: -29.6% |
| Cc1nnc(NC(=O)c2sc3nc(-c4cccs4)cc(C(F)(F)F)c3c2N)s1 | inconclusive [inhibitor, single point] | – |
| CCCc1nn2c(=O)cc(COC(=O)c3ccc4c(c3)OCO4)nc2s1 | inconclusive [inhibitor, single point] | – |
| Cc1cc2nc(-c3ccc(OCc4ccccc4F)cc3)cc(C(F)(F)F)n2n1 | inconclusive [inhibitor, single point] | – |
| Cc1ccccc1NC(=O)CSc1ccc(-c2ccc(-n3cccn3)cc2)nn1 | – | inactive: 7.93% |
| Cc1nn(Cc2cccc(C(=O)NCC(C)C)c2)c(C)c1Br | inconclusive [inhibitor, partial curve] | – |

| SMILES | Potency | activity change, negative = growth inhibition |
| --- | --- | --- |
| CCCNC(=O)C(Cc1ccc(Cl)cc1)NC(=O)c1ccc(-c2ccccc2)cc1 (stereo not given) | active: 6.51 µM | – |
| Oc1ccc(-c2cnc3ccccc3n2)cc1 | – | inactive: -1.19% |
| O=C(c1cc(Cl)nc2ccccc12)N(Cc1nnc(-c2ccccc2Cl)o1)C1CC1 | active: 20.6 µM | – |
| C/C(=N\NC(=O)c1ccc(N/N=C(\C)c2ccc(O)cc2)cc1)c1ccc(O)cc1 | active: 8.2 µM | – |
| Cc1nc2cc(NC(=O)NC3CC3)ccc2n1C | – | inactive: 3.34% |
| COc1cccc(C(c2c(N)n(C)c(=O)n(C)c2=O)C(C)[N+](=O)[O-])c1 (stereo not given) | inconclusive [inhibitor, partial curve] | – |
| CC(C)C[C@H](NC(=O)N1CCn2c1nc1ccccc12)C(=O)NCCc1ccccc1 | inconclusive [inhibitor, single point] | – |
| CCCCn1c(N)c(N(CCOC)C(=O)CC(NC(=O)c2ccccc2Cl)c2ccccc2)c(=O)[nH]c1=O (stereo not given) | – | inactive: 23.1% |
| CNC(=O)c1ccccc1NC(=O)c1cccc(S(=O)(=O)N2CCCCC2)c1 | – | inactive: -8.32% |
| Cc1c(NC(=O)/C=C/C(=O)O)cccc1[N+](=O)[O-] | – | inactive: 5.13% |
| Cc1[nH]n(-c2ccccc2)c(=O)c1C(=O)c1cccc(F)c1 | inconclusive [inhibitor, single point] | – |
| Brc1ccc2nc(-c3ccco3)c(Cc3ccccc3)n2c1 | inconclusive [inhibitor, single point] | – |
| Cc1ccc(-c2c(C(=O)Nc3ccccc3F)oc(=O)c3ccccc23)cc1 | inconclusive [inhibitor, single point] | – |
| Cn1c(NCCN)nc2c1c(=O)n(Cc1ccccc1)c(=O)n2C | inconclusive [inhibitor, single point] | – |
| O=C(CCC(=O)N1CCOCC1)NCCc1ccc(Cl)cc1Cl | inconclusive [inhibitor, single point] | – |
| Cc1cccc(C)c1OCC(=O)N=Nc1c(O)[nH]c2ccc(Br)cc12 | inconclusive [inhibitor, single point] | – |
| CN(C)c1nc(Nc2ccc(F)cc2)nc(Oc2ccc(F)cc2)n1 | inconclusive [inhibitor, single point] | – |
| Cc1ccccc1CNC(=O)C(C)Sc1ccccc1 (stereo not given) | – | inactive: -20.4% |
| Cc1ccccc1C(OCCN(C(C)C)C(C)C)c1ccccc1 (stereo not given) | inconclusive [inhibitor, partial curve, poor fit] | – |
| Cc1ccc(C)c(N2CCN(C(=O)Cn3cnc4nc5c(cc4c3=O)CCCC5)CC2)c1 | inconclusive [inhibitor, single point] | – |
| CCOC(=O)c1cccc(NC(=O)C2=C(C)C(=O)OC23CCCCC3)c1 | inconclusive [inhibitor, partial curve] | – |
| CCOC(=O)C1(CCCc2ccccc2)CCN(S(=O)(=O)N(C)C)CC1 | inconclusive [inhibitor, single point] | – |
